Drawing on PubChem BioAssay AID1656 (Sanford-Burnham Center for Chemical Genomics, 2009), this text covers cell count for 63 compounds.

The other results are listed elsewhere or left out. Further columns of the screen follow, without active or inactive calls. Compounds called inactive in the main read-out are mostly missing here.

A short description of this experiment: inhibitors of hepatocyte lipid droplet formation, primary screen, imaging, high-throughput imaging, BODIPY stain (AID 1656).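 Note: cells counted across two imaged fields per well.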 Conditions: AML12 mouse hepatocytes, oleate lipid droplets, measured here: cell count, cytotoxicity flag, at 6.5 µM. In outline:
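Assay system: AML12 mouse liver cells | Compound: 6.5 µM single-point dosing | Schedule: Overnight exposure | Technique: Fluorescence imaging, 20x objective, two fields per well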
The compound `CN(C)c1ccc(N=Nc2ccccc2Br)cc1` registered a cell count of 811 cells.

Regarding `Cc1ccc([N+](=O)[O-])cc1NC(=O)C(C)Sc1nnc(C)n1CC1CCCO1` (stereo not drawn), the cell count was 800 cells.

On to `CCc1nc2ccccc2c(C(=O)OCC(=O)NCc2ccc3c(c2)OCO3)c1C`, for which the cell count was found to be 731 cells.

On to `Cc1ccc(Nc2nc(N/N=C/c3c[nH]c4ccccc34)nc(N3CCOCC3)n2)cc1`, for which the cell count is 568 cells.

Turning to `Cc1cccc(NC(=O)N2CCC(C(=O)c3ccc(F)cc3)CC2)c1`, the cell count was 838 cells.

`CC(C)N=C(NS(=O)(=O)c1ccccc1)C(Cl)(Cl)Cl` returned a cell count of 35 cells.

`COc1cc([C@@H]2c3cc4c(cc3[C@@H](NC3CCN(Cc5ccccc5)CC3)[C@H]3COC(=O)[C@H]23)OCO4)cc(OC)c1O` yielded a cell count of 121 cells.

`Cc1ccc(-n2nc3c(=O)n(CC(=O)NC(C)CCc4ccccc4)nc(C)c3c2C)cc1` (stereo not drawn) gave a cell count of 780 cells.

As for `CCOC(=O)C1CCN(S(=O)(=O)c2ccc3c(c2)NC(=O)C(C)C(=O)N3)CC1` (stereo not drawn), the cell count amounted to 740 cells.

`COc1cc(/C=N/Nc2nc(Nc3ccccc3)nc(N3CCOCC3)n2)ccc1OC(=O)c1ccco1` yielded a cell count of 29 cells.

In turn, `CCCCNC(=O)c1ccc2c(c1)N(C)C(=O)c1ccccc1S2` came in with a cell count of 777 cells.

`COc1cccc(N2CCN(CC(=O)Nc3nnc(-c4ccccc4)s3)CC2)c1` showed a cell count of 728 cells.

Turning to `Cc1ccc(-n2nc3c(=O)n(CC(=O)NC4CCCCC4)nc(C)c3c2C)cc1`, the cell count is 716 cells.

For `CCOc1ccccc1N1CCN(C(=O)NCc2ccc(C)cc2)CC1`, the cell count was found to be 823 cells.

For `CCOc1cc(C(=O)N/N=C/C(Br)=C/c2ccccc2)cc(OCC)c1OCC`, the cell count turned out to be 211 cells.

Turning to `COC(=O)c1sc2cc([N+](=O)[O-])cc(SCC(C)C)c2c1N`, the cell count was 699 cells.

`COc1ccc(C2(c3ccc(OC)cc3)NC(=O)N(CC(=O)Nc3ccccc3C)C2=O)cc1` came in with a cell count of 709 cells.

`CCC(C)c1ccccc1NC(=O)COC(=O)c1ccc2[nH]c3c(c2c1)CCCC3` (stereo not drawn): the cell count came out at 602 cells.

Consider `O=C(CCl)N=c1sccn1Cc1cccc2ccccc12`, for which the cell count worked out at 231 cells.

Regarding `CCCn1c(SCC(=O)NC)nc2sc3c(c2c1=O)CCC3`, the cell count amounted to 154 cells.

Compound `COC(=O)c1cn(NC(=O)c2ccc([N+](=O)[O-])cc2Cl)c(=O)c2ccccc12` came in with a cell count of 661 cells.

As for `CCCCSCCCNC(=O)c1ccc2c(c1)N(CC)C(=O)c1ccccc1S2=O` (stereo not drawn), the cell count was 810 cells.

In turn, `Cc1cc(Cl)ccc1NC(=S)NCCCN1CCCC1=O` had a cell count of 291 cells.

In turn, `COc1cccc(N=Nc2ccc3ccccc3c2O)c1` registered a cell count of 769 cells.

As for `COc1ccccc1N1CCN(C(=O)Cn2ncc3c([nH]c4ccccc43)c2=O)CC1`, the cell count is 732 cells.

Consider `CCOCCCNC(=O)c1ccc2c(c1)N=C(CC)c1cc(Br)ccc1S2`, for which the cell count stood at 200 cells.

The compound `COCCNC(=S)N1CCc2cc(OC)c(OC)cc2C1COc1cc(C)cc(C)c1` (stereo not drawn) showed a cell count of 565 cells.

In turn, `COc1ccc(-c2nc(NC(=O)c3ccc(OCC(=O)N4CCOCC4)c(OC)c3)sc2C)cc1` gave a cell count of 547 cells.

In turn, `O=C(CNc1ccccc1)N/N=C/c1cn(-c2ccccc2)nc1-c1ccccc1` displayed a cell count of 650 cells.

`COCCn1cnc2c(c1=O)c1nc3ccccc3nc1n2/N=C/c1ccc(OC)c(OC)c1` gave a cell count of 691 cells.

Regarding `CCC(=O)Nc1c2c(nn1-c1ccc(C)cc1)CS(=O)(=O)C2`, the cell count was determined as 736 cells.

For `COc1ccc(NC(=O)CN2C(=O)NC(c3ccccc3)(c3ccccc3)C2=O)cc1OC`, the cell count is 784 cells.

With `CCn1cc(C(=O)N(C)c2ccc(OC)cc2)c2cc(OC)c(OC)cc2c1=O`, the cell count was 829 cells.

Compound `O=C(Nc1ccc(NC(=O)c2cc3ccccc3o2)cc1)c1ccco1` displayed a cell count of 769 cells.

In the case of `NC(=O)N/N=C/c1ccc(-c2ccc([N+](=O)[O-])cc2)o1`, the cell count worked out at 657 cells.

Compound `COc1ccc(OS(=O)(=O)c2ccc(N3C(=O)CCC3=O)cc2)cc1` gave a cell count of 49 cells.

`CC1(C)S[C@@H]2[C@H](NC(=O)[C@H](C(=O)O)c3ccsc3)C(=O)N2[C@H]1C(=O)O` had a cell count of 291 cells.

As for `O=C(Cc1cccc2ccccc12)Nc1c(F)cccc1F`, the cell count was found to be 844 cells.

For the compound `CCCCn1c(N)c(-c2nc3ccccc3s2)c2c([N+](=O)[O-])nn(CC)c(=O)c21`, the cell count stood at 727 cells.

In the case of `CCOC(=O)CSc1c(-c2cccs2)[nH]c2ccccc12`, the cell count came to 785 cells.

In the case of `CCN(CC)c1ccc(/C=C2\CCC(/C=C(\C#N)C(=O)Nc3ccccc3F)=C2N2CCOCC2)cc1`, the cell count turned out to be 651 cells.

`COc1ccc(OC)c(CCNC(=O)C(C)n2nc(C)c3c(C)n(-c4ccc(C)cc4)nc3c2=O)c1` (stereo not drawn) gave a cell count of 677 cells.

The compound `CCCC1O[C@@H]2C[C@H]3[C@@H]4CCC5=CC(=O)C=C[C@]5(C)[C@H]4[C@@H](O)C[C@]3(C)[C@]2(C(=O)CO)O1` (stereo partly drawn) came in with a cell count of 663 cells.

Take `COc1ccc(C(=O)CCC(=O)Nc2ccc(N3CCCCC3)cc2)cc1OC`: the cell count is 796 cells.

As to `CN1c2ccccc2C2(C)CCCC3=Cc4cccc([N+](=O)[O-])c4OC312` (stereo not drawn), the cell count is 250 cells.

As to `CN(C)Cc1ccc(O)c(CCc2ccccc2)n1`, the cell count worked out at 750 cells.

The compound `Cc1ccc2nc(Nc3ccc(F)cc3)c3nncn3c2c1` returned a cell count of 811 cells.

For the compound `CN1CCN(c2ccccc2NC(=S)NC(=O)c2cc3ccccc3o2)CC1`, the cell count was determined as 47 cells.

`CCOc1ccc(CCNC(=O)C2CC(=O)N(Cc3ccc(OC)cc3)C2)cc1OCC` (stereo not drawn): the cell count worked out at 713 cells.

Consider `CCOc1ccc(CCNC(=O)C2(c3ccccc3)CC2)cc1OCC`, for which the cell count came to 719 cells.

On to `COC(=O)c1ccc(-c2noc(CN(C)CC3CCCCO3)n2)cc1` (stereo not drawn), for which the cell count stood at 455 cells.

Consider `Cc1cccc(NS(=O)(=O)c2ccc(-c3cnc(C4CC4)o3)cc2)c1C`, for which the cell count was found to be 229 cells.

`C/C(N)=C(/C#N)C(=O)CSc1nnc(Nc2cccc(C)c2)s1` came in with a cell count of 712 cells.

`CCN1CCN(c2c(/C=C3\SC(=S)N(Cc4ccco4)C3=O)c(C)c(C#N)c(=O)n2C)CC1`: the cell count turned out to be 751 cells.

Compound `CC(=O)Nc1ccc(S(=O)(=O)Nc2nc3ccccc3nc2N2CCc3ccccc3C2)cc1` came in with a cell count of 264 cells.

As for `CCNC(=S)N1CCc2cc(OC)c(OC)cc2C1COc1ccc(F)cc1` (stereo not drawn), the cell count came to 687 cells.

As to `Cc1ccc(C(=O)NCCNC(=O)c2ccc(C)nc2)cc1`, the cell count is 802 cells.

In turn, `CCN(CC(=O)Nc1ccccc1C(F)(F)F)C(=O)c1cc(-c2cccs2)nn1-c1ccccc1` gave a cell count of 829 cells.

`CC(/C=N/NC(=O)c1n[nH]c2c1CCC2)=C\c1ccccc1` displayed a cell count of 256 cells.

The compound `COc1ccc(CCNC(=O)CC(c2ccccc2)c2cc(C)ccc2O)cc1OC` (stereo not drawn) showed a cell count of 820 cells.

As to `CCN1CC(CN(C)Cc2nc(-c3ccc(C(F)(F)F)cc3)no2)CC1=O` (stereo not drawn), the cell count was 182 cells.

`CCC(C(=O)NCCc1ccccc1OC)n1nc(C)c2c(C)n(-c3ccccc3)nc2c1=O` (stereo not drawn) registered a cell count of 714 cells.

Regarding `COc1ccc(S(=O)(=O)N2CCOC2CNC(=O)C(=O)NCCc2ccc(OC)c(OC)c2)cc1C` (stereo not drawn), the cell count came out at 235 cells.
